Screen size: about 310,000 compounds; about 14,000 (4.5%) showed an effect of 50% or more. The effect is printed as a negative number. The list shows a part of the results.
Each molecule was assayed against human ether-à-go-go-related gene (hERG) potassium channel (human, UniProt Q12809) (assay: primary screen, population patch clamp on CHO cells stably expressing hERG).
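Further: peak tail current of the secondary pulse compared with the same well before compound.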

Sequence of human ether-à-go-go-related gene (hERG) potassium channel (Q12809 whole entry, looked up): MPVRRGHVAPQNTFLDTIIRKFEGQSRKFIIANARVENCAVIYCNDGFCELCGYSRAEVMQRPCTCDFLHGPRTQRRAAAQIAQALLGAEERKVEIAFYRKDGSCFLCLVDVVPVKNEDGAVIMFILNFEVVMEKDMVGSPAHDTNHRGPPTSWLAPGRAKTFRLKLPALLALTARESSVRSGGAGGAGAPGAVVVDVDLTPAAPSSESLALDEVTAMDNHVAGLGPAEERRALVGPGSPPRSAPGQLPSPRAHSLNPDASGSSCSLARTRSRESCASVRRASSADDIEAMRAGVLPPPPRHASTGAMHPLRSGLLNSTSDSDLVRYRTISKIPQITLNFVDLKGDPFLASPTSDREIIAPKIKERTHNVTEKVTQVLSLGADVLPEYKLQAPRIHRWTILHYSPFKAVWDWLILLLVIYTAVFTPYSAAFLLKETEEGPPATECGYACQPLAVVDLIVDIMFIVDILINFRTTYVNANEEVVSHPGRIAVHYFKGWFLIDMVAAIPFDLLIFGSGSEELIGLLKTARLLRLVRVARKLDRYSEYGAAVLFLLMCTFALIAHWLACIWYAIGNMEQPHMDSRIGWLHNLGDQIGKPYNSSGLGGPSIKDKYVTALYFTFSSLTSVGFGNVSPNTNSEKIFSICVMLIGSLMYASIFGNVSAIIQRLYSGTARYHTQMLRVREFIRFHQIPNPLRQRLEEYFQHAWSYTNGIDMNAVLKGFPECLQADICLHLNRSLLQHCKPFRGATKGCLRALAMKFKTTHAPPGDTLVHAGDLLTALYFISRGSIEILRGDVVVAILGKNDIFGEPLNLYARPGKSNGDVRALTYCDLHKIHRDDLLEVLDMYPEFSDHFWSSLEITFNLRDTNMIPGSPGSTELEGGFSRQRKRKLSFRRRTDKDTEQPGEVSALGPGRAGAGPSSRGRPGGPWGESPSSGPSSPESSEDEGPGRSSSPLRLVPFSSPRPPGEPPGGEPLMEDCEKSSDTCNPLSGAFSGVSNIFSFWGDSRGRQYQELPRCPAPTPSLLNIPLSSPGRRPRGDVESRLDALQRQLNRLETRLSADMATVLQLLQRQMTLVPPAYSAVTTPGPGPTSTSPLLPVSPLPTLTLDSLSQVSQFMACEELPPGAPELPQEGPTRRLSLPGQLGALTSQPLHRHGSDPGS

Structure (SMILES)	hERG current change (%, negative = inhibition) at 10uM
O=C(CCCC(=O)c1ccccc1)Nc1ccc(F)cc1	11.6%
CCCn1c(=O)c(C(=O)NNC(=O)c2ccc(Cl)cc2Cl)c(O)c2ccccc21	2.68%
CC1(C)CC(=O)C2=C(C1)OC(N)=C([N+](=O)[O-])C2c1ccc(F)cc1 (stereo not shown)	-4.66%
N#CC(C#N)=C/C(C#N)=C(/N)N1CCN(c2ccc(Cl)cc2)CC1	0.973%
CC12CCC(=O)N1C(C(=O)NNC(=O)c1ccccc1)CS2 (stereo not shown)	0.931%
CC(C)OC(=O)CC(=O)CSc1nc2c(cc1C#N)CCCCCC2	-4.33%
CS(=O)(=O)N(CCc1ccccc1)CC(=O)N1CCN(Cc2ccccc2)CC1	-41.8%
CCN(CC)c1ccc(NC(=O)C(C)C)cc1	3.24%
Cc1ccc(Cn2c(C3CCCN3c3nc(-c4cc(Cl)c(N)c(Cl)c4)cs3)nc3cc(Cl)c(Cl)cc32)cc1 (stereo not shown)	16.3%
CC(C)(C)C(=O)N(Cc1nc2ccccc2c(=O)[nH]1)Cc1cccs1	-2.93%
COc1cccc2c(=O)c(C/C=C(/C)Cl)c(C)[nH]c12	3.6%
O=C(c1cnn2c(C(F)(F)F)cc(-c3ccco3)nc12)N1CCCCCC1	-0.258%
CCC(C(=O)NC1CCCC1)n1nc(C)n2c(cc3occc32)c1=O (stereo not shown)	-2.75%
CC1(C)Cc2c(ccc3ccccc23)/C(=C/C(=O)N2CCCCC2)N1.Cl	0.952%
CCOC(=O)C1(CCc2ccccc2)CCN(C(=O)c2cc(C)nc(C)n2)CC1	-11%
O=C(O)c1ccc(OC2CSC2)cc1	22.7%
CCOC(=O)N1CCN(c2nc(C)c3c(n2)CCCC3=O)CC1	7.97%
Cn1c(=O)c2c(ncn2CC(=O)OCC(=O)Nc2sccc2C(N)=O)n(C)c1=O	-10.1%
COc1ccc(OC)c(/C=N/n2c(-c3n[nH]c4c3CCC4)n[nH]c2=S)c1	15.9%
Cc1nnc(SCc2cccc(Cl)c2)n(N)c1=O	-6.81%
Cc1ccc(NC(=O)C2CCC(=O)N2)cc1C (stereo not shown)	7.96%
O=C(CCNC(=O)c1ccc([N+](=O)[O-])cc1)NNC(=O)c1ccccc1F	1.48%
O=C(CSc1nnc(Cn2nnc3ccccc32)o1)N(Cc1ccc(Cl)cc1)c1ccccc1	-6.61%
Cc1ccc(OCCC(=O)OCC(=O)c2ccc3c(c2)NC(=O)CO3)cc1	-5.09%
O=C(CN(C(=O)CCC(=O)Nc1ccccn1)c1ccc(F)cc1)NCc1ccco1	14.2%
Cc1ccc(N2C(=O)C3N=NN(CC(=O)N4N=C(c5ccccc5)CC4c4ccccc4)C3C2=O)cc1 (stereo not shown)	-5.33%
O=C(Nc1ccc(Oc2ccc(Br)cc2)cc1)C1=CC=CN2CCS(=O)(=O)N=C12	-0.78%
O=C(Nc1nnc(-c2ccccc2)o1)c1nc2ccccc2s1	12.9%

Structure (SMILES)	hERG current change (%, negative = inhibition) at 10uM
Cn1c(CC(=O)Nc2ccc(F)cc2)nnc1SCC(=O)NC1CCCCC1	23.9%
COc1ccc(N2C(=O)C(F)(F)C2c2ccc(C)cc2)cc1OC (stereo not shown)	22.2%
O=C(CN1CCCc2ccccc21)NC(=O)NCc1ccco1	7.7%
CCCCCCCCCCS(=O)(=O)N/N=C/c1ccc([N+](=O)[O-])cc1	3.69%
CCC(C)c1ccc(-n2c(=O)c3ccccc3n3c(=S)[nH]nc23)cc1 (stereo not shown)	23.2%
CCC(=O)N1CCc2cc(OC)c(OC)cc2C1COc1ccc(C(=O)OC)cc1 (stereo not shown)	-1.37%
Cc1nc(N2CCOCC2)c2c(C)c(C(=O)Nc3ccc(C(F)(F)F)cc3)sc2n1	-34.9%
CCN(CC)C(=O)c1sc(NC(=O)c2cccc([N+](=O)[O-])c2)c(C#N)c1C	2.99%
O=C(COc1ccccc1Cl)N1CCc2ccccc2C1	7.04%
Cc1cc(/C=N/NC(=O)c2ccc(CN3CCOCC3)cc2)c(C)n1-c1ccccc1	-25.7%
Fc1ccc(N2CCN(C(c3cccs3)c3nnnn3C3CCCC3)CC2)cc1 (stereo not shown)	-34.1%
O=C(CSc1cc(Cl)ccc1Cl)NCCCn1ccnc1	5.87%
COC(=O)COc1ccc(Oc2cc(C)nc(SC)n2)nn1	5.27%
CCCCNC(=O)/C(C#N)=c1\s/c(=C\c2ccccc2OC(F)F)c(=O)n1CCCOC	22.6%
COc1cccc(NC(=O)CN(C)C(=O)CSc2ccc3c(c2)OCCO3)c1	-9.86%
Cc1cc(F)ccc1NC(=O)c1ccc(NS(=O)(=O)c2cc(C(C)(C)C)ccc2C)cc1	0.887%
Cc1csc(Nc2ccccc2)[n+]1-c1ccccc1.[Br-]	22.5%
C[n+]1cnn2c1SCC1(COC1)C2.[I-]	11.8%
CN(C)c1ccc(C(=O)N=c2sccn2C)cc1[N+](=O)[O-]	12.6%
COCCCNc1nc2c([nH]1)c(=O)[nH]c(=O)n2C	2.89%
O=C1C=C(c2ccc(Cl)nc2)C[C@@H](c2ccc3c(c2)OCO3)C1	-20.2%
C[C@H](NC(=O)c1nc[nH]c1C(=O)N1CCN(c2ccccc2)CC1)c1ccccc1	-7.45%
CC(=O)C12CCCCC1CC1C3CC(C)C4(O)CC(=O)CCC4(C)C3CCC12C (stereo not shown)	21.8%
O=C(CCSc1ccccc1)Nc1ccc(OCc2ccccc2)cc1	5.88%
COc1ccc(COC(=O)C2=C(C)NC(=O)NC2c2ccc(O)c(OC)c2)cc1 (stereo not shown)	-3.97%
O=C(CSc1nc2ccccc2[nH]1)NC1CCCc2ccccc21 (stereo not shown)	-0.805%
COc1ccc(CCNC(=O)CN2c3cccc4cccc(c34)S2(=O)=O)cc1OC	4.56%

Reference: paper PMC4336329 (PLoS ONE, 2015)
